Cytotoxicity call and growth inhibition call data for ten compounds are collected here from the antibiotic and cytotoxicity screens of Wong et al. (2023).

In one assay the test system is HSkMC. Briefly: cytotoxicity call (relative viability < 0.9). The note with it: 10 µM.
The next assay relates to HepG2. Briefly: cytotoxicity call (relative viability < 0.9). The settings on record: 10 µM.
Another assay has as its system S. aureus RN4220. Briefly: growth inhibition call (relative growth <= 0.2). The note with it: 50 µM.

The other results are listed elsewhere or left out.

Regarding `S=c1ccss1`, the cytotoxicity call in the assay with HSkMC and with HepG2 was “inactive” each time. In addition, in the assay on S. aureus RN4220, the growth inhibition call was “active”.

For the compound `CC(CN1CC(=O)NC(=O)C1)N1CC(=O)NC(=O)C1` (stereo not given), the cytotoxicity call with HSkMC and with HepG2 was “inactive” in each case. Moreover, the growth inhibition call with S. aureus RN4220 was “inactive”.

Consider `NCC[C@@H]1CC[C@@H](NC(=O)NC2CCCCC2)[C@H](CO)O1`, for which the cytotoxicity call with HSkMC and in the assay on HepG2 was “inactive” throughout. For the same compound, the growth inhibition call in the assay with S. aureus RN4220 was “inactive”.

Regarding `COc1cccc(S(=O)(=O)N2C[C@@H](O)COC[C@H]3O[C@H](CC(=O)NCCCN4CCOCC4)CC[C@@H]32)c1`, the cytotoxicity call in the assay with HSkMC and with HepG2 was “inactive” throughout. The growth inhibition call in the assay with S. aureus RN4220 was “inactive”.

With `CC(=O)O[C@@H]1CC[C@]2(C)[C@H]3CC[C@]4(C)C(=CC(=O)O[C@H]4c4ccoc4)[C@]3(C)[C@H](OC(C)=O)C[C@H]2C1(C)C`, the cytotoxicity call in the assay with HSkMC and in the assay on HepG2 was “inactive” in each case. The growth inhibition call in the assay on S. aureus RN4220 was “inactive”.

`Cc1noc(C)c1NC(=O)Nc1ccc2c(c1)C(=O)N([C@@H](C)CO)C[C@@H](C)[C@H](CN(C)C(=O)c1ccccc1)OCCCC[C@H](C)O2`: the cytotoxicity call in the assay on HSkMC and in the assay with HepG2 was “inactive” each time. Also, the growth inhibition call in the assay on S. aureus RN4220 was “inactive”.

For the compound `CCn1cc(C(=O)O)c(=O)c2cnc(N3CCNCC3)nc21`, the cytotoxicity call with HSkMC and in the assay with HepG2 was “inactive” throughout. The growth inhibition call with S. aureus RN4220 was “inactive”.

Regarding `C[C@@H]1CCCCO[C@H](CN(C)Cc2ccc(C(F)(F)F)cc2)[C@H](C)CN([C@H](C)CO)C(=O)c2cc(NC(=O)NC3CCCCC3)ccc2O1`, the cytotoxicity call in the assay with HSkMC and in the assay on HepG2 was “active” each time. The growth inhibition call in the assay with S. aureus RN4220 was “inactive”.

On to `C[C@H](CO)N1C[C@H](C)[C@@H](CN(C)C(=O)Nc2ccccc2)OCCCC[C@H](C)Oc2ccc(NC(=O)Nc3ccc(C(F)(F)F)cc3)cc2C1=O`, for which the cytotoxicity call in the assay on HSkMC (human skeletal muscle cells) and in the assay on HepG2 was “inactive” each time. The growth inhibition call with S. aureus RN4220 was “inactive”.

For the compound `C[C@@H]1CCCCO[C@H](CN(C)Cc2ccc(C(=O)Nc3ccccc3N)cc2)[C@@H](C)CN([C@H](C)CO)C(=O)c2cc(N(C)C)ccc2O1`, the cytotoxicity call with HSkMC and in the assay with HepG2 was “inactive” throughout. Also, the growth inhibition call in the assay on S. aureus RN4220 is “inactive”.
